# Data as given in PMC4336329 (PLoS ONE, 2015).
# Screen size: about 310,000 compounds; about 14,000 (4.5%) showed an effect of 50% or more. Effects have a minus sign here. The list shows a part of the results.
# Molecular target: human ether-à-go-go-related gene (hERG) potassium channel (human, UniProt Q12809)
# Assay: primary screen, population patch clamp on CHO cells stably expressing hERG
# 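Note: peak tail current of the secondary pulse compared with the same well before compound.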
# human ether-à-go-go-related gene (hERG) potassium channel, sequence (Q12809 whole entry, looked up): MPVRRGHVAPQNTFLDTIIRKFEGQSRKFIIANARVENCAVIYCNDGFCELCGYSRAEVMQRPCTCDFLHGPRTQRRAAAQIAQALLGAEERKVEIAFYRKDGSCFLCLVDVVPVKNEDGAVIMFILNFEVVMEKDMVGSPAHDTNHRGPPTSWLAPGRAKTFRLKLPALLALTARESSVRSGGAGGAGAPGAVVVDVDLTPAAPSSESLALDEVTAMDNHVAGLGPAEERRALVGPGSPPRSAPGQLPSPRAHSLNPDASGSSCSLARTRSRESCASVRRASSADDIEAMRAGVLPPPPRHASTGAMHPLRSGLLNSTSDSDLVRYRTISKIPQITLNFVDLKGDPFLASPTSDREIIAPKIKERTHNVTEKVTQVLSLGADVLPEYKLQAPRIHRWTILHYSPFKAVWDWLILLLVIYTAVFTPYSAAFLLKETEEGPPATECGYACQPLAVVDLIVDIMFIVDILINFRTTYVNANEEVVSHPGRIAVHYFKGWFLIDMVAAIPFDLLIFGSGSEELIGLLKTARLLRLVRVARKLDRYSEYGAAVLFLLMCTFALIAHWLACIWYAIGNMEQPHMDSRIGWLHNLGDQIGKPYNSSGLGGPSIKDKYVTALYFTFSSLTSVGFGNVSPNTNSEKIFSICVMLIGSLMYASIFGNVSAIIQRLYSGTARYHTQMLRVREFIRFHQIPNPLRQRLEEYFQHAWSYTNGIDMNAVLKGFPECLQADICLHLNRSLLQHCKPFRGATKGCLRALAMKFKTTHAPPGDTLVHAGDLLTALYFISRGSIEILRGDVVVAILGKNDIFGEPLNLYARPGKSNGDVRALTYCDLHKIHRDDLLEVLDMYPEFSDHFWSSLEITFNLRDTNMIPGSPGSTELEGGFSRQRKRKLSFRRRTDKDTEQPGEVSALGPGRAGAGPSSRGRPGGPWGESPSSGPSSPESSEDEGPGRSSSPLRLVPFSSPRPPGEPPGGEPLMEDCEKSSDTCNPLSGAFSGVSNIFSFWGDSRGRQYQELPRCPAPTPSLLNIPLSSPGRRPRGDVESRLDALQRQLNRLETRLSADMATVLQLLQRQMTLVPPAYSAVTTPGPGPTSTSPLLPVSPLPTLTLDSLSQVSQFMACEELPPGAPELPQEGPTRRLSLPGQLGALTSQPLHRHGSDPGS
row,SMILES,"hERG current change (%, negative = inhibition) at 10uM [%]"
1,CC(C)CCn1c(N2CCCC2)nc2c1c(=O)[nH]c(=O)n2C,6.71
2,Nc1c(C(=O)c2cccs2)oc2ccccc12,-0.949
3,COc1ccc(NC(=O)c2cnn3c(C(F)(F)F)cc(-c4ccco4)nc23)cc1OC,12.5
4,O=c1cc(O)n(-c2ccccc2)c(=S)[nH]1,24
5,CCCC(=O)NC(=S)c1c(C)n(C)n(-c2ccccc2)c1=O,25.8
6,CCOC(=O)c1c(CC(C)C)csc1NC(=O)c1ccccc1C(=O)O,-2.93
7,Nc1cc(N)nc(SCC(=O)N2CCCCC2)n1,4.86
8,CC(Oc1cc2oc(=O)c3c(c2cc1Cl)CCC3)C(=O)NCC1CCC(C(=O)O)CC1 (stereo not drawn),8.54
9,O=C(CCc1ccc(F)c(F)c1)NC1CCCN(Cc2ccc(Cl)cc2)C1 (stereo not drawn),-66
10,CCOC(=O)C1=C(CSc2nnnn2C)N(C)C(=O)NC1c1ccccc1 (stereo not drawn),5.85
11,COC(=O)C1=C(C)C(c2ccc(OC)cc2)NC(=O)N1 (stereo not drawn),15.3
12,O=C(N/N=C/c1ccco1)c1ccc(NC(=O)C2CC2)cc1,18.2
13,O=C(CS(=O)(=O)c1ccc(F)cc1)N1CCOCC1,12
14,C=CCNc1nc(SCC=C)nc2ccsc12,-26.4
15,CC(=O)Nc1c(C(=O)O)oc2ccc(Cl)cc12,2.23
16,CC(=O)N(c1ccc2oc(=O)sc2c1)S(=O)(=O)c1ccc(C)cc1,8.61
17,CC(C)(C)c1ccc(C(=O)NCCN2CCOCC2)cc1,1.01
18,O=C(Nc1ccc(N2CCCC2)c(Cl)c1)c1ccccc1[N+](=O)[O-],-9.06
19,O=C(O)c1ccc2c(=O)n3cc(C(=O)c4ccccc4O)cc(Cl)c3nc2c1,1.38
20,CNc1c(NS(=O)(=O)c2ccc(CC(C)C)cc2)c(=O)oc2ccccc12,21.1
21,CC1CC(C)CN(CCCNC(=O)c2ccc(N3CCCC3=O)cc2)C1 (stereo not drawn),2.62
22,Cc1ccc(-n2nc3c(c2NC(=O)CC(C)C)CS(=O)(=O)C3)cc1,-0.57
23,CON(C)S(=O)(=O)NC(=O)C1=C(N2CCCC2)COC1=O,19.3

row,SMILES,"hERG current change (%, negative = inhibition) at 10uM [%]"
1,CC1CCCC(C)N1C(=O)COC(=O)c1cc(-c2cccs2)nn1-c1ccccc1 (stereo not drawn),2.56
2,CC1CC(C)(C)NC(=S)N1CC(=O)NCc1ccccc1Cl (stereo not drawn),13.7
3,COCC(=O)Nc1nnc(Cc2ccc(OC)c(OC)c2)s1,-7.97
4,Oc1ccccc1O,10.6
5,O=C(C1CCN(S(=O)(=O)c2cccnc2)CC1)N1CCN(C2CCCC2)CC1,20.5
6,O=C(c1n[nH]c2ccccc12)N1CCN(S(=O)(=O)c2ccc(Cl)cc2)CC1,-6.47
7,CCCOC1CCCN(C(=O)c2ccc3oc(C(C)C)nc3c2)C1 (stereo not drawn),3.64
8,O=C(NCc1ccco1)C(c1ccccc1F)N(CC1CCCO1)C(=O)Cn1nnc2ccccc21 (stereo not drawn),-19.2
9,COc1cc(C(C)=O)ccc1COc1ccc(C(=O)OCC(=O)NC(C)(C)C)cc1OC,-1.07
10,COc1cc(-c2cc(C(=O)Nc3ccc(S(=O)(=O)Nc4ncccn4)cc3)c3ccccc3n2)cc(OC)c1OC,-7.01
11,COc1ccc(OC)c(C2C(C(=O)Nc3ccccc3OC)=C(C)Nc3nc(CCCO)nn32)c1 (stereo not drawn),13.8
12,C[C@]12CCC(=O)C[C@H]1CC[C@@H]1[C@@H]2CC[C@]2(C)[C@@H](O)CC[C@@H]12,-18.7
13,CC1c2nc3ccccc3n2C(CC(=O)NCc2ccccn2)C(=O)N1Cc1ccccc1 (stereo not drawn),17.8
14,O=C(CC1C(=O)NCCN1Cc1cccc(Oc2ccccc2)c1)NCCCn1cccn1 (stereo not drawn),-0.678
15,O=C(NC(Cc1cccc(F)c1)C(=O)O)C1CCCCC1 (stereo not drawn),12.7
16,C/C(=N\OCC(=O)OC(C)C(=O)Nc1ccc(C(N)=O)cc1)c1ccc2c(c1)OCO2 (stereo not drawn),9.34
17,Cc1cc(C)nc(Sc2ncnc3sc4c(c23)CCC4)n1,-3.92
18,COc1ccc(NC(=O)c2ccccc2N(Cc2ccccc2)S(C)(=O)=O)cc1,-9.52
19,Fc1ccc(N2CCN(C(=S)NCc3ccco3)CC2)cc1,-14
20,Nc1cc(=O)[nH]c(SCc2cccc3ccccc23)n1,16.7
21,CN(CCCNC(=O)c1ccc(/C=N/O)nc1)CCCN(C)Cc1ccccc1,-28.2
22,O=C(CSc1nc2ccccc2o1)c1cc2ccccc2oc1=O,-6.45
23,O=C(COC(=O)c1ccccc1Nc1ccccc1)NCc1ccccc1,2.68

row,SMILES,"hERG current change (%, negative = inhibition) at 10uM [%]"
1,Cc1nn(C)cc1C1C(C#N)=C(N)N(c2cccnc2)C2=C1C(=O)CCC2 (stereo not drawn),8.05
2,CCN(CC)CCNC(=O)c1cn(CC)c2cc(N3CCN(C)CC3)c(F)cc2c1=O.Cl,2.96
3,O=C(O)COc1ccccc1/C=N/NC(=O)c1cc2ccccc2cc1O,26
4,CCOC(=O)Nc1sc(NS(=O)(=O)c2ccccc2)nc1C,11
5,COc1ccccc1NC(=O)c1cc(Cl)ccc1NC(=O)c1ccco1,-1.81
6,CC(C)(C(N)=O)c1ccccc1,14.4
7,Cc1ccsc1/C=N/n1c(-c2ccco2)n[nH]c1=S,20.7
8,O=C(COC(=O)c1cc([N+](=O)[O-])ccc1Cl)NC1CCCC1,-26.8
9,CCOc1ccsc1C(=O)O,11
10,O=C(CN1C(=O)/C(=C\c2ccc(C(F)(F)F)cc2)Sc2ccccc21)NCc1ccco1,-5.39
11,N/C(=N\OC(=O)c1cc(Cl)ccc1Cl)c1cccnc1,7.89
12,Cc1sc2nc(CN3CCCC3)nc(NCc3ccncc3)c2c1C,-69.1
13,S=C(Cc1cccnc1)N1CCOCC1,17.8
14,COc1ccccc1CC(=O)Nc1sc2c(c1C(N)=O)CCCC2,10.2
15,Cc1ccc2c(COC(=O)c3ccc(NC(=O)CC#N)cc3)cc(=O)oc2c1C,3.63
16,O=c1[nH]cnc(O)c1C(c1ccc(Br)cc1)c1c(O)nc[nH]c1=O,13.5
17,CC1CN/C(=C\C(=O)c2ccc(Br)cc2)C(=O)N1 (stereo not drawn),-3.87
18,Cc1ccc(C(=O)N2Cc3ccccc3CC2C(=O)O)cc1 (stereo not drawn),-13.9
19,N/C(=N\c1nc2ccccc2o1)NC(=O)/C=C/c1ccccc1,0.904
20,Cc1ccc(Cn2c(=O)n(-c3ccccc3)c(=O)c3ccc(C(=O)NCc4ccco4)cc32)cc1,-10.1
21,Cc1cccc(C)c1NC(=O)CN(C)C(=O)c1ccc2nc[nH]c2c1,20.8
22,CCOC(=O)C1=C(CC)Nc2ccccc2N=C1NC(=O)CCNC(C)=O,-0.111
23,Cc1nn(-c2ccccc2)c(OC(=O)c2cccs2)c1S(=O)(=O)c1ccc([N+](=O)[O-])cc1,10.1

row,SMILES,"hERG current change (%, negative = inhibition) at 10uM [%]"
1,CC(C)(C)c1ccc(C(=O)NN2CCOCC2)cc1,-36.6
2,O=C(O)c1cccc(N=NN2CCCCCC2)c1,5.08
3,CCN1CCCC1CNS(=O)(=O)c1ccc(Cl)c(C(F)(F)F)c1 (stereo not drawn),-19.1
4,CCOC(=O)C1CCCCN1Cc1cc(OC)ccc1OC (stereo not drawn),5.17
5,O=C(CCc1ccc(Oc2cc([N+](=O)[O-])cc([N+](=O)[O-])c2)cc1)Nc1cccc(Cl)c1,1.31
6,N#Cc1nc(Cc2ccccc2)oc1N1CCN(c2ccccc2)CC1,-20
7,O=C(CCCN1C(=O)/C(=C/c2ccccc2)SC1=S)Nc1ccc(O)cc1,1.19
8,COc1ccc(NC(=S)NCc2cccs2)cc1,14.5
9,CCOc1ccc(OCC(=O)N2CCOCC2)cc1,10.2
10,O=C(O)c1ccc(N/N=C/C=C/c2ccccc2[N+](=O)[O-])cc1,6.89
11,CC(C(=O)NC1CCCCCC1)N(c1ccccc1)S(C)(=O)=O (stereo not drawn),22.5
12,CCCC(=O)N/C(N)=N/c1nc2ccccc2o1,-26
13,CCc1ccccc1NC(=O)C(C#N)Cc1cccnc1 (stereo not drawn),-1.27
14,O=C(OCc1ccccc1F)c1cnc(Cl)c(Cl)c1,9.52
15,O=C(Nc1ccc(NC(=O)C2CC2)cn1)c1ccccc1Cl,-0.204
16,O=C(Oc1ccc(Cl)c2cccnc12)N1CCCCC1,-5.05
17,COc1ccc(-c2ncc3ccccn23)cc1OC.O=C(O)C(=O)O,-1.63
18,Cc1ccc(CCNC(=O)C2CCN(c3nn4c(=O)cc(C)nc4s3)CC2)cc1,-33.4
19,CCCCn1c(=O)[nH]c(=O)c2c1nc(COc1ccc(C#N)cc1)n2CCC,-57.2
20,CCOC(=O)c1c(NC(=O)COC(=O)c2nc(Cl)ccc2Cl)sc(C(=O)N(C)C)c1C,0.337
21,CS(=O)(=O)N1CCC(C(=O)NNC(=O)Nc2ccc(F)c(Cl)c2)CC1,-11.6
